Values of other authors as cited in patent US4808614A (priority 1987, dated 1989).

Tested on: herpes virus
Conditions: cited from earlier work

SMILES | activity against herpes virus
Nc1nc2c(ncn2COCCO)c(=O)[nH]1 [9-(2-hydroxyethoxymethyl)guanine] | potent antiviral agent, especially useful against herpes viruses
O=c1[nH]c(=O)n([C@H]2C[C@H](O)[C@@H](CO)O2)cc1C=CBr [5-(2-bromovinyl)-2'-deoxyuridine] | potent agent against herpes virus
